Measurements: a compilation of properties of binary mixtures (doi:10.1016/j.jcis.2008.02.039)
The densities may have been worked out from excess volumes.

Experiment: xn = mol fraction of the nth substance listed
Details: 101 kPa

**Q.** With CCCCCC[N+](C)(C)CCO.[Br-] + CCCCCCCCO as the compound, how does the mass density (298.15 K, x1 = 0.0002) read?
**A.** The mass density was 824.5 kg/m3.

**Q.** And the mass density (298.15 K, x1 = 0.0004)?
**A.** Its mass density is 826.8 kg/m3.

**Q.** And the mass density (298.15 K, x1 = 0.0008)?
**A.** The mass density was 828.7 kg/m3.

**Q.** Which results are given for CCCCCCOC[n+]1ccn(C)c1.F[B-](F)(F)F + CCCCCCO?
**A.** mass density (308.15 K, x1 = 0.0061): 812.2 kg/m3; mass density (318.15 K, x1 = 0.0061): 803.1 kg/m3

**Q.** Which mass density (308.15 K, x1 = 0.002) does the source give for CCCCCCOCn1cc[n+](COCCCCCC)c1.F[B-](F)(F)F + CCCCCCO here?
**A.** Its mass density is 809.5 kg/m3.

**Q.** And the mass density (308.15 K, x1 = 0.0055)?
**A.** The mass density was 812.3 kg/m3.

**Q.** And the mass density (318.15 K, x1 = 0.0034)?
**A.** The mass density was 802 kg/m3.

**Q.** And the mass density (318.15 K, x1 = 0.0048)?
**A.** The mass density was 803.6 kg/m3.

**Q.** And the mass density (318.15 K, x1 = 0.0061)?
**A.** The mass density was 804.8 kg/m3.

**Q.** For CCCCCCO + CCCCCCOC[n+]1ccn(C)c1.F[B-](F)(F)F, which mass density (308.15 K, x1 = 1) is on record?
**A.** Its mass density is 808.1 kg/m3.

**Q.** For CCCCO + CCCCCCOC[n+]1ccn(C)c1.F[B-](F)(F)F, which mass density (318.15 K, x1 = 1) is on record?
**A.** Its mass density is 789.7 kg/m3.

**Q.** Which mass density (308.15 K, x1 = 1) does the source give for CO + CCCCCCOC[n+]1ccn(C)c1.F[B-](F)(F)F here?
**A.** Its mass density is 771.3 kg/m3.

**Q.** With CCCCCCCCO + CCCCCC[N+](C)(C)CCO.[Br-] as the compound, how does the mass density (298.15 K, x1 = 1) read?
**A.** Its mass density is 822.6 kg/m3.

**Q.** Which mass density (298.15 K, x2 = 0.0798) does the source give for CCCCCCCCOS(=O)(=O)[O-].CCCC[n+]1ccn(C)c1 + CCCCO here?
**A.** Its mass density is 1062 kg/m3.

**Q.** And the mass density (298.15 K, x2 = 0.151)?
**A.** Its mass density is 1055.6 kg/m3.

**Q.** And the mass density (298.15 K, x2 = 0.3849)?
**A.** The mass density was 1028.4 kg/m3.

**Q.** What about the mass density (298.15 K, x2 = 0.5569) of the same compound?
**A.** The mass density was 1000.2 kg/m3.

**Q.** What about the mass density (298.15 K, x2 = 0.697) of the same compound?
**A.** Its mass density is 966.2 kg/m3.

**Q.** And the mass density (298.15 K, x2 = 0.839)?
**A.** The mass density was 913.3 kg/m3.

**Q.** Which mass density (308.15 K, x1 = 0.0014) does the source give for CCCCCCOC[n+]1ccn(C)c1.F[B-](F)(F)F + CCCCO here?
**A.** The mass density was 798.2 kg/m3.

**Q.** What about the mass density (308.15 K, x1 = 0.004) of the same compound?
**A.** Its mass density is 799.9 kg/m3.

**Q.** What about the mass density (318.15 K, x1 = 0.004) of the same compound?
**A.** Its mass density is 791.6 kg/m3.

**Q.** And the mass density (318.15 K, x1 = 0.0046)?
**A.** Its mass density is 792.2 kg/m3.

**Q.** And the mass density (318.15 K, x1 = 0.0064)?
**A.** The mass density was 793.8 kg/m3.

**Q.** With CCCCCCOCn1cc[n+](COCCCCCC)c1.F[B-](F)(F)F + CCCCO as the compound, how does the mass density (308.15 K, x1 = 0.0012) read?
**A.** Its mass density is 799.8 kg/m3.

**Q.** What about the mass density (308.15 K, x1 = 0.0027) of the same compound?
**A.** The mass density was 803 kg/m3.

**Q.** What about the mass density (308.15 K, x1 = 0.0038) of the same compound?
**A.** Its mass density is 804.5 kg/m3.

**Q.** And the mass density (318.15 K, x1 = 0.0016)?
**A.** Its mass density is 790.5 kg/m3.

**Q.** And the mass density (318.15 K, x1 = 0.0028)?
**A.** The mass density was 792.1 kg/m3.

**Q.** For CCCC[n+]1ccn(C)c1.COS(=O)(=O)[O-] + CCCCO, which mass density (298.15 K, x2 = 0.0918) is on record?
**A.** The mass density was 1195.7 kg/m3.

**Q.** And the mass density (298.15 K, x2 = 0.2232)?
**A.** Its mass density is 1167.6 kg/m3.

**Q.** And the mass density (298.15 K, x2 = 0.3233)?
**A.** Its mass density is 1142.5 kg/m3.

**Q.** And the mass density (298.15 K, x2 = 0.4882)?
**A.** Its mass density is 1093.2 kg/m3.

**Q.** What about the mass density (298.15 K, x2 = 0.6593) of the same compound?
**A.** The mass density was 1026.8 kg/m3.

**Q.** What about the mass density (298.15 K, x2 = 0.8547) of the same compound?
**A.** The mass density was 920.8 kg/m3.

**Q.** With COS(=O)(=O)[O-].Cn1cc[n+](C)c1 + CCCCO as the compound, how does the mass density (298.15 K, x2 = 0.0228) read?
**A.** Its mass density is 1325.6 kg/m3.

**Q.** And the mass density (298.15 K, x2 = 0.0339)?
**A.** Its mass density is 1322.9 kg/m3.

**Q.** What about the mass density (298.15 K, x2 = 0.1189) of the same compound?
**A.** Its mass density is 1299.4 kg/m3.

**Q.** What about the mass density (298.15 K, x2 = 0.2123) of the same compound?
**A.** Its mass density is 1268.1 kg/m3.

**Q.** And the mass density (298.15 K, x2 = 0.2828)?
**A.** The mass density was 1241.4 kg/m3.

**Q.** And the mass density (298.15 K, x2 = 0.4049)?
**A.** Its mass density is 1189.5 kg/m3.

**Q.** What about the mass density (298.15 K, x2 = 0.4657) of the same compound?
**A.** The mass density was 1161.1 kg/m3.

**Q.** What about the mass density (298.15 K, x2 = 0.7593) of the same compound?
**A.** Its mass density is 996.2 kg/m3.

**Q.** And the mass density (298.15 K, x2 = 0.8788)?
**A.** Its mass density is 911.2 kg/m3.

**Q.** What does the source list for CCCC[n+]1ccn(C)c1.COS(=O)(=O)[O-] + CCO?
**A.** mass density (298.15 K, x2 = 0.2242): 1183.8 kg/m3; mass density (298.15 K, x2 = 0.3295): 1164.5 kg/m3; mass density (298.15 K, x2 = 0.5521): 1109.9 kg/m3; mass density (298.15 K, x2 = 0.6827): 1060.3 kg/m3; mass density (298.15 K, x2 = 0.82): 980.3 kg/m3

**Q.** With COS(=O)(=O)[O-].Cn1cc[n+](C)c1 + CCO as the compound, how does the mass density (298.15 K, x2 = 0.0297) read?
**A.** The mass density was 1326.1 kg/m3.

**Q.** And the mass density (298.15 K, x2 = 0.1089)?
**A.** Its mass density is 1312.7 kg/m3.

**Q.** And the mass density (298.15 K, x2 = 0.2821)?
**A.** The mass density was 1271.6 kg/m3.

**Q.** What about the mass density (298.15 K, x2 = 0.3567) of the same compound?
**A.** The mass density was 1249.1 kg/m3.

**Q.** And the mass density (298.15 K, x2 = 0.5312)?
**A.** The mass density was 1182.5 kg/m3.

**Q.** And the mass density (298.15 K, x2 = 0.6742)?
**A.** The mass density was 1106.8 kg/m3.

**Q.** What about the mass density (298.15 K, x2 = 0.8628) of the same compound?
**A.** The mass density was 959.2 kg/m3.

**Q.** With CCCCCCCCOS(=O)(=O)[O-].CCCC[n+]1ccn(C)c1 + CO as the compound, how does the mass density (298.15 K, x2 = 0) read?
**A.** Its mass density is 1068 kg/m3.

**Q.** What about the mass density (298.15 K, x2 = 0.1583) of the same compound?
**A.** The mass density was 1063.2 kg/m3.

**Q.** What about the mass density (298.15 K, x2 = 0.341) of the same compound?
**A.** Its mass density is 1056.2 kg/m3.

**Q.** What about the mass density (298.15 K, x2 = 0.5269) of the same compound?
**A.** Its mass density is 1037.8 kg/m3.

**Q.** And the mass density (298.15 K, x2 = 0.7108)?
**A.** Its mass density is 1013.6 kg/m3.

**Q.** What about the mass density (298.15 K, x2 = 0.8183) of the same compound?
**A.** Its mass density is 981 kg/m3.

**Q.** What does the source list for CCCCCCOC[n+]1ccn(C)c1.F[B-](F)(F)F + CO?
**A.** mass density (308.15 K, x1 = 0.0032): 772.9 kg/m3; mass density (308.15 K, x1 = 0.0037): 773.4 kg/m3; mass density (318.15 K, x1 = 0.0026): 765.3 kg/m3; mass density (318.15 K, x1 = 0.0036): 766.2 kg/m3; mass density (318.15 K, x1 = 0.0044): 766.8 kg/m3

**Q.** With CCCCCCOCn1cc[n+](COCCCCCC)c1.F[B-](F)(F)F + CO as the compound, how does the mass density (308.15 K, x1 = 0.0009) read?
**A.** Its mass density is 772 kg/m3.

**Q.** And the mass density (308.15 K, x1 = 0.0019)?
**A.** The mass density was 774.1 kg/m3.

**Q.** What about the mass density (318.15 K, x1 = 0.0007) of the same compound?
**A.** The mass density was 766.9 kg/m3.

**Q.** And the mass density (318.15 K, x1 = 0.0012)?
**A.** The mass density was 767 kg/m3.

**Q.** What about the mass density (318.15 K, x1 = 0.0019) of the same compound?
**A.** The mass density was 767.8 kg/m3.

**Q.** Which results are given for CCCC[n+]1ccn(C)c1.COS(=O)(=O)[O-] + CO?
**A.** mass density (298.15 K, x2 = 0.1826): 1192.8 kg/m3; mass density (298.15 K, x2 = 0.3515): 1169.5 kg/m3; mass density (298.15 K, x2 = 0.4798): 1149.4 kg/m3; mass density (298.15 K, x2 = 0.6308): 1114.1 kg/m3; mass density (298.15 K, x2 = 0.7487): 1064.7 kg/m3; mass density (298.15 K, x2 = 0.9307): 911.6 kg/m3

**Q.** Which results are given for COS(=O)(=O)[O-].Cn1cc[n+](C)c1 + CO?
**A.** mass density (298.15 K, x2 = 0): 1329 kg/m3; mass density (298.15 K, x2 = 0.259): 1288.1 kg/m3; mass density (298.15 K, x2 = 0.3854): 1260.5 kg/m3; mass density (298.15 K, x2 = 0.5214): 1224.1 kg/m3; mass density (298.15 K, x2 = 0.7353): 1125.1 kg/m3

**Q.** With CCCCO + COS(=O)(=O)[O-].Cn1cc[n+](C)c1 as the compound, how does the mass density (298.15 K, x1 = 1) read?
**A.** The mass density was 805.6 kg/m3.

**Q.** With CCO + COS(=O)(=O)[O-].Cn1cc[n+](C)c1 as the compound, how does the mass density (298.15 K, x1 = 1) read?
**A.** Its mass density is 784.8 kg/m3.

**Q.** For CO + COS(=O)(=O)[O-].Cn1cc[n+](C)c1, which mass density (298.15 K, x1 = 1) is on record?
**A.** The mass density was 785.3 kg/m3.
